In all, about 110,000 compounds were measured (“z-score”: median about -0.1, highest 2% from about 2 on). The list shows a part of the results. The source made the active and inactive calls.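 Rule for the calls: active = z-score in the third read window above 3 or below -3; inactive = the rest.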

The target of the test is Metabotropic glutamate receptor 8 (Rattus norvegicus) (UniProt P70579). The experiment in a line: mGluR8 Gi/Go-coupled signaling modulation – cell-based, rat, thallium flux, HTS, primary screen (AID 488969). As to conditions: HEK293 rat mGluR8, GIRK (G protein-gated inwardly rectifying potassium channel) thallium flux, FluoZin2; at 10 µM; stronger effect = higher value; submaximal glutamate (EC20) added with thallium.
Sequence of UniProt P70579 (P70579 whole entry, looked up): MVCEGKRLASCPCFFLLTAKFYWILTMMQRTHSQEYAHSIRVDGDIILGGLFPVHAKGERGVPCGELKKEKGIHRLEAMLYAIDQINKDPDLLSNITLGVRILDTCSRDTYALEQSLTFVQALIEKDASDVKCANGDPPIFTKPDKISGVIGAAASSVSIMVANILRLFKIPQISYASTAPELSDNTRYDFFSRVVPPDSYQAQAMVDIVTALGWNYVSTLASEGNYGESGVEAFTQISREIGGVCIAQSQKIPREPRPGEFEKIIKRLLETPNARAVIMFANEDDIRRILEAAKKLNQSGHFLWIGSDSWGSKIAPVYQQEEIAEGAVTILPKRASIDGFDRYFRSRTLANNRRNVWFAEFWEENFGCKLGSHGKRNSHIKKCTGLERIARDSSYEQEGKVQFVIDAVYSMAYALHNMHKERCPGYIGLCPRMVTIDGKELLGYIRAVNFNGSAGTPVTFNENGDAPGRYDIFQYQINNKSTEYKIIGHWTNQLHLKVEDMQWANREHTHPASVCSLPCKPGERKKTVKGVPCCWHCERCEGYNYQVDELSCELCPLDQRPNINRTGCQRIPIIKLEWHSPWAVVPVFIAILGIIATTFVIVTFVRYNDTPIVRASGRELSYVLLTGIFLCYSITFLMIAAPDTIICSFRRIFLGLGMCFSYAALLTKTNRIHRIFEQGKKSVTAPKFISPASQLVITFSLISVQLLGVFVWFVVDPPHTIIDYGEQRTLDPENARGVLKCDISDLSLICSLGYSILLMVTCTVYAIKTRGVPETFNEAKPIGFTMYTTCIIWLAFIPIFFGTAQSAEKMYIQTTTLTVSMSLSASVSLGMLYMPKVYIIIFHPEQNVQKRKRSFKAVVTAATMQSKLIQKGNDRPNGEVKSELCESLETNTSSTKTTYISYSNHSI
The compound `O=c1oc2ccccc2cc1-c1nc2c(s1)CCCC2` had a z-score of 0.248.

Compound `COCCn1c(C)cc(C(=O)CSc2nc3nc(C)cc(C)n3n2)c1C` showed a z-score of -0.117.

As for `COc1ccc(C(=O)NCc2cccnc2)cc1S(=O)(=O)N1CCOCC1`, the z-score came out at 0.714.

`CCN(CC)CCCOC(=O)C1(c2ccccc2)CCCC1` registered a z-score of -0.296.

`COc1ccccc1C1C(C(N)=O)=C(C)Nc2nc(-c3ccccc3Cl)nn21` (configuration not stated): the z-score amounted to 0.966.

Compound `Cc1[nH]c2ccccc2c1C(=O)CSc1ncn[nH]1` returned a z-score of 0.379.

The compound `Cc1cc(C)cc(NC(=O)N2CCC(c3nc4ccccc4o3)CC2)c1` came in with a z-score of -0.199.

Regarding `COC(=O)c1sc(N)nc1C(C)(C)C`, the z-score is -0.167.

Consider `Cc1cc(=O)[nH]c(SCC(=O)Nc2ccc(Cl)cn2)n1`, for which the z-score is -0.129.

As to `Cc1sc2nc(CN3CCOCC3)nc(NCCc3ccccc3)c2c1C`, the z-score is -0.888.

`COc1ccc(C(=O)NC(C)c2cc(OC)c(OC)cc2Br)cc1` (configuration not stated) came in with a z-score of 0.0958.

Regarding `O=C(OCCCN=C1NS(=O)(=O)c2ccccc21)c1ccc(F)cc1`, the z-score is 0.0302.

Consider `C=CCOc1nc2c(c(=O)n(Cc3ccc(Cl)c(Cl)c3)c(=O)n2C)n1C`, for which the z-score worked out at 0.181.

As to `Cc1ccc2cc(CN(Cc3ccco3)C(=O)C3CCCCC3)c(=O)[nH]c2c1C`, the z-score is -0.462.

In turn, `CCOc1ccc(-c2cnc(SCC(N)=O)nc2N)cc1` came in with a z-score of -0.114.

With `N#CCc1nc2n(n1)Cc1ccccc1-2`, the z-score is -0.162.

`O=C(c1cccs1)N1CCC(c2ccccc2)C1` (configuration not stated): the z-score was -0.355.

`FC(F)(F)c1nc2ccccc2nc1N/N=C\c1ccccc1` gave a z-score of 0.3.

`CNCc1ccccc1OCC(=O)Nc1ccccc1OC` registered a z-score of 0.00756.

`COc1cc(C=C(C(C)=O)C(C)=O)ccc1O` yielded a z-score of -0.241.

Compound `O=P(O)(CN1CCCCCC1)CN1CCCCCC1` displayed a z-score of 1.73.

The compound `CCOc1ccc(Br)cc1S(=O)(=O)Nc1ccc(C(=O)Nc2ccc(C)cc2)cc1` gave a z-score of 0.0526.

As to `CSc1sc(C)cc1C1C(C#N)=C(N)N(c2cccnc2)C2=C1C(=O)CC(C)(C)C2` (configuration not stated), the z-score stood at 0.694.

Compound `O=C(NCC(c1cccnc1)N1CCN(c2ccc(F)cc2)CC1)C1CCCCC1` (configuration not stated) displayed a z-score of 0.396.

In the case of `CCCCn1c(SCC(=O)Nc2cc(C)[nH]n2)nc2ccsc2c1=O`, the z-score was -0.528.

Compound `CCOC(=O)N1CCN(c2c(N3CCC(N4CCCCC4)CC3)c(=O)c2=O)CC1` showed a z-score of -0.197.

In turn, `CC1(C)CC(=O)c2cnc(N3CCN(c4ccccc4)CC3)nc2C1` showed a z-score of 1.09.

`CC(=O)NCCc1ccc(S(=O)(=O)N(C)C2CCS(=O)(=O)C2)cc1` (configuration not stated) yielded a z-score of 0.0497.

`O=C(Cn1cnc2c(cnn2-c2ccccc2)c1=O)Nc1ccc(S(=O)(=O)N2CCOCC2)cc1` came in with a z-score of -0.156.

For the compound `C=CCNC(=O)CSc1nc2cc(C(=O)OCC)ccc2n1CC`, the z-score is -0.074.

`Brc1cnc(N2CCCC2)nc1N1CCCCC1`: the z-score was -0.0143.

Compound `CC(C)CCNC(=O)CNC(=S)N(Cc1ccccc1)Cc1cccnc1` returned a z-score of 0.196.

Take `O=C(CSc1ccc2nnc(-c3ccc(Cl)cc3)n2n1)N1CCCc2ccccc21`: the z-score turned out to be 0.00121.

`COCCn1c(-c2cccc([N+](=O)[O-])c2)nc2c1c(=O)[nH]c(=O)n2Cc1ccccc1` returned a z-score of -0.444.

`COc1ccc(S(=O)(=O)N(CC(=O)O)Cc2ccccc2)cc1OC` gave a z-score of 0.601.

In turn, `COc1cc(-c2noc(-c3ccccc3C(=O)NCc3ccco3)n2)cc(OC)c1OC` registered a z-score of -0.342.

The compound `CCN(CC)c1ccc(/C=N/n2c(=S)[nH]nc(C)c2=O)cc1` gave a z-score of 0.495.

Compound `CCN(CC)C(=O)c1sc(NC(=O)C(Sc2ccccc2)c2ccccc2)c(C(=O)OC(C)C)c1C` (configuration not stated) had a z-score of -0.0795.

In turn, `CC(/C=C/c1ccccc1)=N\NC(=O)c1ccncc1` displayed a z-score of -0.0615.

Take `O=C(O)CCCCCNc1nc2ncn(Cc3ccccc3)c2c(=O)[nH]1`: the z-score is -0.725.

`Cn1c2ccccc2c2c(C(=O)NCc3ccco3)cn(C3CCCCC3)c(=O)c21` gave a z-score of -0.469.

`CC(=C/C(=O)O)/C(=C/c1ccccc1)C(=O)O` gave a z-score of -0.139.

In turn, `COc1ccccc1-c1cc(C(=O)Nc2sc3c(c2C#N)CCC(C)C3)c2ccccc2n1` (configuration not stated) gave a z-score of 1.94.

Compound `Cc1ccc(N2CC(C(=O)Nc3ccccc3C(=O)NC3CCCCC3)CC2=O)cc1C` (configuration not stated) had a z-score of -1.83.

Consider `COc1ccc(-c2nc(N)n[nH]2)cc1OC`, for which the z-score worked out at 1.23.

As to `CCCCN(Cc1cc2cc(OC)ccc2[nH]c1=O)C(=O)c1ccco1`, the z-score was -0.346.

In turn, `CN(CC(=O)Nc1ccc(N2CCOCC2)cc1)CC(=O)Nc1ccccc1C#N` had a z-score of -0.249.

In turn, `CCOC(=O)C1CCN(Cc2c(F)cccc2Cl)CC1` showed a z-score of -0.196.

Turning to `COCc1nc2ccccc2n1Cc1cccc(C)c1`, the z-score was -0.395.

In turn, `CCC(=O)Nc1ccc(C(=O)Nc2ccc3c(c2)OCO3)cc1` registered a z-score of -0.396.

`O=C(COC(=O)CC(c1ccccc1)c1ccccc1)Nc1c(F)cccc1F` returned a z-score of 0.185.

As for `CCC(Oc1ccc2c(c1)C(=O)CC(C)(C)O2)C(=O)NCCN1CCCCCC1` (configuration not stated), the z-score was -0.771.

On to `CCOc1ccc2ccccc2c1/C=N\NC(=O)OC`, for which the z-score is 0.00163.

Compound `CC1(C)CN(c2ccccc2)N(C(=O)c2ccc(C#N)cc2)C1=O` came in with a z-score of -0.0177.

On to `CCOc1cc2[nH]c(=S)n(C(C)C)c(=O)c2cc1OCC`, for which the z-score is active: 9.84.

In the case of `CCOC(=O)c1sc2ncnc(N3CCN(c4ccc(OC)cc4)CC3)c2c1C`, the z-score was -0.164.

Consider `Cc1onc(-c2ccccc2)c1C(=O)NCCc1c[nH]c2ccccc12`, for which the z-score is -0.024.

The compound `COC(=O)c1cc(NS(=O)(=O)c2ccc(N3CCOCC3)c(NC(C)=O)c2)cc(C(=O)OC)c1` displayed a z-score of -0.248.

As for `CC(C)N1CC(C(=O)O)CC1=O` (configuration not stated), the z-score is -0.0306.

`Cn1c(SCC(=O)Nc2ccccc2F)nnc1-c1ccc(S(=O)(=O)N2CCOCC2)cc1`: the z-score worked out at 1.5.

`COc1cc(-c2nc3oc4ccccc4c(=O)c3c(=O)n2Cc2ccco2)cc(OC)c1OC` gave a z-score of -0.0137.

Regarding `CC(Nc1nc2ncn(Cc3ccccc3)c2c(=O)[nH]1)C(=O)O` (configuration not stated), the z-score is 0.0134.

`O=C(CCc1ccccc1)NC(=S)Nc1cc(C(F)(F)F)ccc1N1CCOCC1` returned a z-score of 0.334.

In the case of `C=CCn1c(SCC(=O)Nc2ccc3c(c2)OCO3)nnc1-c1ccccc1OC`, the z-score came out at 0.559.

The compound `Cc1ccc(-c2csc(-c3c[nH]c4ccccc34)n2)cc1` showed a z-score of 0.0181.

The compound `CC(NS(=O)(=O)c1ccccc1)C1COc2ccccc2O1` (configuration not stated) returned a z-score of -0.174.

`O=C(NCc1ccco1)c1nn2c(C(F)(F)F)cc(-c3cccs3)nc2c1Br` yielded a z-score of -0.597.

Regarding `CCOc1ccc(NC(=O)CC2NCCNC2=O)cc1` (configuration not stated), the z-score was -0.295.

For the compound `COc1cccc(Oc2ccc(N)cn2)c1`, the z-score turned out to be 0.371.

Consider `Cc1ccc2c(c1)sc1nc(=O)n(-c3ccc(Cl)c(Cl)c3)c(=O)n12`, for which the z-score stood at 0.00486.

Consider `COc1cc2c(cc1OC)CN(C(=O)C1(c3ccccc3)CC1)CC2`, for which the z-score was -0.166.

Take `CCOC(=O)c1cc(CC)sc1NC(=O)c1cccc(N2C(=O)CCC2=O)c1`: the z-score was -0.0657.

Turning to `O=C(NCc1cccs1)C1CCN(c2ccc(S(=O)(=O)N3CCOCC3)cc2Cl)CC1`, the z-score was -1.19.

The compound `CCN(CC)S(=O)(=O)c1ccc(N2CCOCC2)c(NC(=O)Cc2ccc(Cl)cc2)c1` returned a z-score of 0.141.

`CS(=O)(=O)N(CCc1ccccc1)CC(=O)NCc1ccncc1` displayed a z-score of -0.128.

`CCN(CC)CCNC(=O)C12CC3CC(CC(C3)C1)C2`: the z-score came out at 1.11.

As to `Cc1ccc(CONC(=O)/N=C/N(C)C)cc1`, the z-score was -0.115.

As for `CCCCCc1nnc(NC(=O)C(=O)OCC)s1`, the z-score is -0.104.

`COc1cc(CCC(=O)Nc2cccc(C(F)(F)F)c2)cc(OC)c1OC` registered a z-score of -0.00124.

In turn, `CCCCc1nnc(NC(=O)C2CC(=O)N(c3ccc4c(c3)OCCO4)C2)s1` (configuration not stated) showed a z-score of 1.43.

`CCN(CC)S(=O)(=O)c1cc(NC(=O)C(=O)c2c(-c3ccccc3)cc3ccccn23)ccc1C`: the z-score is -0.0782.

The compound `CCCC(=O)Nc1ccc(NC(=S)NC(=O)c2ccccc2[N+](=O)[O-])cc1` came in with a z-score of -0.105.

Turning to `CCNC(=S)N(CCc1ccccc1C)Cc1cc2cc(OC)c(OC)cc2[nH]c1=O`, the z-score is -0.106.

Compound `c1cncc(-c2nnc3sc(C4CCCCC4)nn23)c1` had a z-score of -0.392.

Compound `CC1CCC(C(=O)NC(C(=O)NCCN2CCC(C)CC2)C(C)C)CC1` (configuration not stated) displayed a z-score of -0.179.

For `CC(C)CSc1nc2ccccc2c(=O)[nH]1`, the z-score was 0.41.

Turning to `Cc1onc(-c2c(Cl)cccc2Cl)c1C(=O)N1C=CC(C(F)(F)F)=NCC1`, the z-score is -0.114.

`COc1ccc(C(=O)NC(=S)N2CC(C)OC(C)C2)cc1` (configuration not stated) had a z-score of 0.0339.

Compound `COc1ccccc1NS(=O)(=O)c1ccc(C)c(NC(=O)c2ccc(S(=O)(=O)N3CCCCCC3)cc2)c1` yielded a z-score of -0.106.

The compound `Cc1onc(-c2ccccc2Cl)c1C(=O)Nc1ccccc1C(=O)NC(C)C` yielded a z-score of -0.742.

Regarding `COc1cccc(OC)c1OCC(C)CNCC1CCCO1` (configuration not stated), the z-score is -0.0252.

Consider `COc1cc(OC)c(-c2nn3c(C4CCCCC4)nnc3s2)cc1OC`, for which the z-score is -1.67.

The compound `CCNC(=S)NNC(=O)c1csc2c1CCCC2` gave a z-score of -0.209.

On to `COC(=O)c1c(C)nn(-c2ccccc2)c1-n1cccc1`, for which the z-score is -0.366.

In turn, `O=C(Nc1ccccc1)N(O)c1ccc(Cl)cc1` yielded a z-score of 0.164.

As for `Cc1cc(/C=N/n2cnnc2)c(C)n1-c1ccc2c(c1)OCO2`, the z-score is -0.329.

The compound `CCCC1=Nc2cc(C(=O)NCCCOC(C)C)ccc2Sc2ccccc21` came in with a z-score of -0.218.

In the case of `Cc1ccc(CN2CCN(c3ncccn3)CC2)o1`, the z-score stood at 0.689.

`Cc1ccc(-c2noc(CN3CCN(Cc4ccccc4)CC3)n2)cc1` showed a z-score of 0.161.

Compound `CC(C)OC(=O)CCCCCN1C(=O)CSC1=S` had a z-score of 0.0501.

Compound `CC(C)=NNc1nc(-c2ccccc2)cs1` yielded a z-score of -0.203.

As for `COc1ccc(NC(=O)/C(C#N)=C/c2ccc(Br)o2)cc1`, the z-score came out at 0.17.

As for `Cc1nc2c(cc1C#N)C(=O)c1ccccc1-2`, the z-score was -0.0645.

As for `CC(=O)Nc1cccc(OC(=O)N2CCOCC2)c1`, the z-score was -0.0852.

In turn, `C=CCn1c(SCC(=O)Nc2sccc2C(N)=O)nc2sc(CC)cc2c1=O` had a z-score of -1.15.

As to `COc1ccc(CCNC(=O)NC23CC4CC(CC(C4)C2)C3)cc1`, the z-score worked out at 0.569.

Turning to `O=C(NCCC1=CCCCC1)C1CCN(S(=O)(=O)c2cnc[nH]2)CC1`, the z-score was -1.18.

With `COc1ccc(OC)c(S(=O)(=O)N2CCC(C(=O)Nc3cc(C)ccc3C)CC2)c1`, the z-score is -0.034.

On to `CCOC(=O)c1c(NC(=O)c2c(Br)cnn2C)c(C#N)nn1-c1ccccc1`, for which the z-score is -0.287.

The compound `Cc1[nH]c(=O)c(C#N)c2c1CSC(C)(C)C2` came in with a z-score of -0.624.

The compound `Cc1ccc(SCC(=O)N(Cc2nc(-c3ccccc3)no2)C(C)C)cc1` displayed a z-score of -0.437.

In turn, `NNC(=O)CNC(c1ccccc1)c1cc(Br)ccc1NC(=O)CCN1CCOCC1` (configuration not stated) gave a z-score of -0.177.

For the origin of these results see PubChem BioAssay AID488969 (Vanderbilt High Throughput Screening Facility, 2010).
